Values joined by “and” are separate entries in the source; they are usually repeats but may differ in a detail not shown here. Equal values may be shown once. Where a name gives a salt, the structure may show the parent alone. ± gives the standard deviation of the averaged measurements. In all, about 3,200 compounds were measured (“nuclei count (viability) relative to DMSO”: median about 99, lowest 2% from about 16 on). The list shows a part of the results.

This assay concerns U2OS. The assay is described as follows: nuclei count (viability) relative to DMSO (% of DMSO); higher = more viable cells. The conditions noted are these: 10 µM; 24 h. How it is done:
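Primary image-based screen in U2OS cells: compounds at 10 uM for 24 h, then a 1 h o-propargyl-puromycin (OPP) pulse, click labelling, and high-throughput microscopy. Mean cytoplasmic OPP intensity and nuclei count were normalised to DMSO wells within each plate (DMSO = 100) and averaged over triplicate plates.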
In the case of `COC1CCN(C(=O)c2cc(Cc3n[nH]c(=O)c4ccccc34)ccc2F)CC1`, the nuclei count was 72.7.

The compound `c1cncc(CN2CCC(n3ncc4c(N5CCOCC5)nc(-c5ccc6[nH]ccc6c5)nc43)CC2)c1` registered a nuclei count of 64.3. In the case of `C=C(C)[C@@H](CC=C(C)C)C[C@@]12C[C@@H](CC=C(C)C)C(C)(C)[C@@](CC=C(C)C)(C(=O)C(C(=O)c3ccc(O)c(O)c3)=C1O)C2=O` [Garcinol] it was 105; in that of `O=C(O)c1c(Sc2ccccc2)c2cc(Cl)ccc2n1Cc1ccc(Cl)cc1`, 97.3.

On to `COc1cc([C@@H]2c3cc4c(cc3[C@@H](O[C@@H]3O[C@@H]5CO[C@@H](c6cccs6)O[C@H]5[C@H](O)[C@H]3O)[C@H]3COC(=O)[C@H]23)OCO4)cc(OC)c1O` [Teniposide (Vumon)], for which the nuclei count is 15.5. Compound `O=c1[nH]cnc2c1ncn2[C@@H]1O[C@H](CO)[C@@H](O)[C@H]1O` [Inosine] had a nuclei count of 102. To `CCOc1ccccc1OC(c1ccccc1)C1CNCCO1` (stereo not given) [Reboxetine mesylate] belongs 104 ± 4.2; to `O=C1NC(=O)/C(=C/c2ccc3c(c2)OC(F)(F)O3)S1`, 109. To `CCCCOc1cc(CC2CNC(=O)N2)ccc1OC` (stereo not given) belongs 100; to `Nc1ccc(C(=O)Nc2cccc(-c3nc(N4CCOCC4)c4oc5ncccc5c4n3)c2)cn1`, 60.6 ± 12; to `CN(C)CCCN1c2ccccc2Sc2ccc(Cl)cc21` [Chlorpromazine hydrochloride], 79.4.

`CN(CC[C@@H](Oc1ccc(-c2ccccc2)cc1)c1ccc(F)cc1)CC(=O)O` [ALX 5407 hydrochloride] showed a nuclei count of 94.2. To `O=C(NOCC(O)CO)c1cc(Br)c(F)c(F)c1Nc1ccc(I)cc1F` (stereo not given) belongs 86.1; to `CN(C)CC(c1ccc(O)cc1)C1(O)CCCCC1` (stereo not given) [Desvenlafaxine Succinate], 102. Compound `COc1ccc(S(=O)(=O)N(CCO)c2ccccc2CN(C)C/C=C/c2ccc(Cl)cc2)cc1` [KN-93 Phosphate] yielded a nuclei count of 98.4. `O=C(Nc1ccccc1Br)N[C@@H]1CCN(c2ccc(C(F)(F)F)cn2)C1` registered a nuclei count of 98.7.

`CCOC(=O)[C@@](C)(N)Cc1ccc(O)c(O)c1` [Methyldopate hydrochloride]: the nuclei count came to 92.8.

As for `O=C(c1ccccc1)c1ccc2n1CCC2C(=O)O` (stereo not given) [Ketorolac tromethamine], the nuclei count stood at 90.6. Compound `COc1c(N2CCNC(C)C2)c(F)cc2c(=O)c(C(=O)O)cn(C3CC3)c12` (stereo not given) [Gatifloxacin] had a nuclei count of 110. `CNC(=O)[C@H]1O[C@@H](n2cnc3c(NCc4cccc(I)c4)nc(Cl)nc32)[C@H](O)[C@@H]1O` gave a nuclei count of 103. For `CCN(CC)CCCC(C)Nc1nc(C)cc(Nc2ccc3nc(C)cc(N)c3c2)n1` (stereo not given), the nuclei count was determined as 99.44 ± 0.99. On to `O=C(C[S+]([O-])Cc1ccco1)NC/C=C\COc1cc(CN2CCCCC2)ccn1` (stereo not given) [Lafutidine], for which the nuclei count was found to be 102. To `O=[N+]([O-])c1cccc2c[nH]nc12` belongs 102; to `C#CCC(Cc1cnc2nc(N)nc(N)c2n1)c1ccc(C(=O)N[C@@H](CCC(=O)O)C(=O)O)cc1` (stereo not given in full) [Pralatrexate (Folotyn)], 92. To `CCN[C@@H]1C[C@H](N)[C@@H](O[C@H]2OC(CN)=CC[C@H]2N)[C@H](O)[C@H]1O[C@H]1OC[C@](C)(O)[C@H](NC)[C@H]1O` [Netilmicin Sulfate] belongs 96.5; to `CC(C)(O)c1ccccc1CC[C@@H](SCC1(CC(=O)O)CC1)c1cccc(/C=C/c2ccc3ccc(Cl)cc3n2)c1` [Montelukast], 109; to `O=C1NC(=O)C(c2ccccc2)(c2ccccc2)N1` [Phenytoin], 103. To `O=C1NC(=O)C(=Cc2ccc(-c3ccc(F)cc3)o2)S1` (stereo in doubt) belongs 98.6 ± 3.4. Compound `CN1Cc2c(N)cccc2C(c2ccccc2)C1` (stereo not given) [Nomifensine maleate] had a nuclei count of 102. To `CN(C)C/C=C/C(=O)Nc1cc2c(Nc3ccc(F)c(Cl)c3)ncnc2cc1O[C@H]1CCOC1` [Afatinib (BIBW2992)] belongs 33.1. In the case of `OC[C@@H](O)[C@@H](O)[C@@H](O)CO` [Ribitol (Adonitol)] it was 105. Consider `O=C(Nc1ccccc1)Nc1ccc(-c2ccc(C(=O)[C@@H]3CCC[C@H]3C(=O)O)cc2)cc1`, for which the nuclei count came out at 100.

`c1ccc(CNc2ncnc3nc[nH]c23)cc1` [Aminopurine, 6-benzyl] displayed a nuclei count of 104. The compound `COC(=O)Nc1nc2cc([S+]([O-])c3ccccc3)ccc2[nH]1` (stereo not given) [Oxfendazole] returned a nuclei count of 82.4. `COC(=O)Nc1nc2cc([S+]([O-])c3ccccc3)ccc2[nH]1` (stereo not given) [Oxfendazol] had a nuclei count of 77.2. In the case of `NC1CCN(c2nc3c(cc2F)c(=O)c(C(=O)O)cn3-c2ccc(F)cc2F)C1` (stereo not given) [Tosufloxacin hydrochloride] it was 92; in that of `COc1ccccc1OCC(O)COC(N)=O` (stereo not given) [Methocarbamol], 102; in that of `Cc1cc(N)c2ccccc2[n+]1CCCCCCCCCC[n+]1c(C)cc(N)c2ccccc21` [Dequalinium dichloride], 98.5. The compound `Nc1ccn([C@@H]2CS[C@H](CO)O2)c(=O)n1` [Lamivudine] registered a nuclei count of 96.6.

Consider `Clc1cccc2c1CN(C1=NCCN1)C2`, for which the nuclei count is 98.5. In the case of `O=C(/C=C/c1c(C(=O)O)[nH]c2cc(Cl)cc(Cl)c12)Nc1ccccc1` [Gavestinel] it was 93.2; in that of `Cn1ccc2cc3c(cc21)CCN3C(=O)Nc1cccnc1`, 102.

As for `N#Cc1c(NC(=O)c2cccc3ccccc23)sc2c1CCCC2` [JNK inhibitor IX], the nuclei count is 27.9. In the case of `C=CC(=O)Nc1cccc(Nc2nc(Nc3ccc(OCCOC)cc3)ncc2F)c1` it was 34.7; in that of `CCC(=O)Nc1cccc(Oc2nc(Nc3ccc(N4CCN(C)CC4)cc3OC)ncc2Cl)c1`, 94.6; in that of `C#C[C@]1(O)CC[C@H]2[C@@H]3CCC4=CC(=O)CC[C@@H]4[C@H]3CC[C@@]21CC` [Levonorgestrel (Levonelle)], 101.

Turning to `C#C[C@]1(O)CC[C@H]2[C@@H]3CCC4=CC(=O)CC[C@@H]4[C@H]3CC[C@@]21CC` [Norgestrel-(-)-D], the nuclei count came out at 99. As for `N=C(N)NCCN1CCCCCCC1` [Guanethidine sulfate], the nuclei count stood at 103. In the case of `N#C/C(=C\c1ccc(O)c(O)c1)C(=O)NCc1ccccc1` it was 102 and 98.5; in that of `CC1(C)[C@@H](OC(=O)CCC(=O)O)CC[C@]2(C)[C@H]3C(=O)C=C4[C@@H]5C[C@@](C)(C(=O)O)CC[C@]5(C)CC[C@@]4(C)[C@]3(C)CC[C@@H]12` [Carbenoxolone disodium salt], 94.8.

For the origin of these results see the supplement of paper PMC8183993.
